From the RNAGym collection of RNA variant scans (doi:10.1073/pnas.2313332121)
Variants at the floor of the assay are shown more often than the library holds them.

B1: TPR 5TU (parent)
chain: GGAUCUUCUCGAUCUAACAAAAAAGACAAAUCUGCCACAAAGCUUGAGAGCAUCUUCGGAUGCAGAGGCGGCAGCCUUCGGUGGCGCGAUAGCGCCAACGUUCUCAACUAUGACACGCAAAACGCGUGCUCCGUUGAAUGGAGUUUAUCAUG

Variants of: B1
Assay: polymerase ribozyme fitness, log enrichment relative to wild type (log ratio); higher = more active; in vitro selection for triplet polymerase activity
Summary of the method: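 Mutant libraries of each subunit of a heterodimeric triplet polymerase ribozyme were built by PCR and transcribed. Each library went through one round of in vitro selection in triplicate: annealing with biotinylated primer, partner subunit and triplets, frozen incubation at −7 °C, gel excision of extended constructs, streptavidin-bead capture and RT-PCR. Input and output libraries were Illumina-sequenced; only genotypes with ≥10 input reads and ≥1 read per output were kept. Fitness is log2(genotype enrichment/wild-type enrichment), using inverse-variance-weighted replicate averages.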

Compared with GGAUCUUCUCGAUCUAACAAAAAAGACAAAUCUGCCACAAAGCUUGAGAGCAUCUUCGGAUGCAGAGGCGGCAGCCUUCGGUGGCGCGAUUGCGCCAUCGUUCUCAACUAUGACACGCAAAACGCGUGCUCCGUUGAAUGGAGUUUAUCAUG [A91U A98U], GGAUCUUCUCGAUCUAACAAAAAAGACAAAUCUGCCACAAAGCUUGAGAGCAUCUUCGGAUGCAGAGGCGGCAGCCUUCGGUGGCGCGAUGGCGCUAACGUUCUCGACUAUGACACGCAAAACGCGUGCUCCGUUGAAUGGAGUUUAUCAUG [A91G C96U A106G] is higher in “polymerase ribozyme fitness (log ratio)” value: at most -4.2 for the first, -2.5 for the second.

Compared with GGAUCUUCUCGAUCUAACAAAAAAGACAAAUCUGCCACAAAGCUUGAGAGCAUCUUCGGAUGCAGAGGCGGCAGCCUUCGGUGGCGCGAUGGCGCCAACGUUCUCAACUAUGACACGCAAAACGCGUGCUCCGUUGAAUGGAGUUUAUCAUA [A91G G152A], GGAUCUUCUCGAUCUAACAAAAAAGACAAAUCUGCCACAAAGCUUGAGAGCAUCUUCGGAUGCAGAGGCGGCAGCCUUCGGUGGCGCGAUGGCGCCAACGUUCUCAACUAUGACACGCAAAACGCGUGCUCCGUUGAAUGGAGAUUAUCAUG [A91G U144A] is higher in “polymerase ribozyme fitness (log ratio)” value: -3.71 for the first, -3.08 for the second.

GGAUCUUCUCGAUCUAACAAAAAAGACAAAUCUGCCACAAAGCUUGAGAGCAUCUUCGGAUGCAGAGGCGGCAGCCUUCGGUGGCGCGAUGGCGCCAACGUUCUCAACUAUGACACGCAAAACGCGUGCGCCGUUGAAUGGAGUUUAUCGUG [A91G U130G A150G] and GGAUCUUCUCGAUCUAACAAAAAAGACAAAUCUGCCACAAAGCUUGAGAGCAUCUUCGGAUGCAGAGGCGGCAGCCUUCGGUGGCGCGAUGGCGCCAACGUUCUCAACUAUGACACGCAAAACGCGUGCUCCGUUGAAUCGAGUUUAUCAUG [A91G G140C] cannot be ordered by “polymerase ribozyme fitness (log ratio)” value: at most -4.2 for the first, at most -4.2 for the second.

GGAUCUUCUCGAUCUAACAAAAAAGACAAAUCUGCCACAAAGCUUGAGAGCAUCUUCGGAUGCAGAGGCGGCAGCCUUCGGUGGCGCGAUUGCGCCCACGUUCUCAACUAUGACUCGCAAAGCGCGUGCUCCGUUGAAUGGAGUUUAUCAUG [A91U A97C A115U A122G] and GGAUCUUCUCGAUCUAACAAAAAAGACAAAUCUGCCACAAAGCUUGAGAGCAUCUUCGGAUGCAGAGGCGGCAGCCUUCGGUGGCGCGAUUGCGCCAACGUUCUCAACUAUGACACGCUAAACGCGUGCUCCGUUUAAUGCACUUUAUCAUG [A91U A119U G136U G141C G143C] cannot be ordered by “polymerase ribozyme fitness (log ratio)” value: at most -4.2 for the first, at most -4.2 for the second.

First: GGAUCUUCUCGAUCUAACAAAAAAGACAAAUCUGCCACAAAGCUUGAGAGCAUCUUCGGAUGCAGAGGCGGCAGCCUUCGGUGGCGCGAUUGCGCCAACGUUCUCAACUAUGAUACGCAAAACGCGUGCUCCGUUGAAUGGAGUUUAUCGUG [A91U C114U A150G]
Second: GGAUCUUCUCGAUCUAACAAAAAAGACAAAUCUGCCACAAAGCUUGAGAGCAUCUUCGGAUGCAGAGGCGGCAGCCUUCGGUGGCGCGAUGGCGCCAACGUUCUUAACUAUGACACGCAAAACGCGUGCUACGUUGAAUGGAGUUUAUCAUG [A91G C105U C131A]
The “polymerase ribozyme fitness (log ratio)” value of the first is lower: at most -4.2 for the first, -3.83 for the second.

Compared with GGAUCUUCUCGAUCUAACAAAAAAGACAAAUCUGCCACAAAGCUUGAGAGCAUCUUCGGAUGCAGAGGCGGCAGCCUUCGGUGGCGCGAUUGCGCCAUCGUUCUCAACUAUGACACGCAAAACGCGUGCUCCGUUGAGUGGAGUUUAUCAUG [A91U A98U A138G], GGAUCUUCUCGAUCUAACAAAAAAGACAAAUCUGCCACAAAGCUUGAGAGCAUCUUCGGAUGCAGAGGCGGCAGCCUUCGGUGGCGCGAUGGCGCCAACGUUCGCAACUAUGACCCGCAAAACGCGUGCUCCGUUGAAUGGAGUUUAUCAUG [A91G U104G A115C] is higher in “polymerase ribozyme fitness (log ratio)” value: at most -4.2 for the first, -4.06 for the second.

Compared with GGAUCUUCUCGAUCUAACAAAAAAGACAAAUCUGCCACAAAGCUUGAGAGCAUCUUCGGAUGCAGAGGCGGCAGCCUUCGGUGGCGCGAUUGCGCCAACGUUCUCAACUAUGACACGCAAAACGCGUGCUCCGUUGAAUGGUGUUUAUCAUG [A91U A142U], GGAUCUUCUCGAUCUAACAAAAAAGACAAAUCUGCCACAAAGCUUGAGAGCAUCUUCGGAUGCAGAGGCGGCAGCCUUCGGUGGCGCGAUGGCGCCAACGUGCUCAACUAUGACACGCAAAACGCGUGCUCCGUUGAAUGGAGUUUAUCAUG [A91G U102G] is lower in “polymerase ribozyme fitness (log ratio)” value: -3.67 for the first, at most -4.2 for the second.

GGAUCUUCUCGAUCUAACAAAAAAGACAAAUCUGCCACAAAGCUUGAGAGCAUCUUCGGAUGCAGAGGCGGCAGCCUUCGGUGGCGCGAUUGCGCCAACGUUUUCAACUAUGACACGCAAAACGCGUGCUCCGUUGAAUGGAGUAUAUCAUG [A91U C103U U145A] and GGAUCUUCUCGAUCUAACAAAAAAGACAAAUCUGCCACAAAGCUUGAGAGCAUCUUCGGAUGCAGAGGCGGCAGCCUUCGGUGGCGCGAUUGCGCCAACGUUCUCGACUAAGACACUCAAAACGCGUGCUCCGUUGAAUGGAGUUUAUCAUG [A91U A106G U111A G117U] cannot be ordered by “polymerase ribozyme fitness (log ratio)” value: at most -4.2 for the first, at most -4.2 for the second.

GGAUCUUCUCGAUCUAACAAAAAAGACAAAUCUGCCACAAAGCUUGAGAGCAUCUUCGGAUGCAGAGGCGGCAGCCUUCGGUGGCGCGAUGGCGCCAACUUUCUCCACUAUGACACGCAAAACGCGUGCUCCGUUGAAUGGAGUUUAUCAUG [A91G G100U A106C] and GGAUCUUCUCGAUCUAACAAAAAAGACAAAUCUGCCACAAAGCUUGAGAGCAUCUUCGGAUGCAGAGGCGGCAGCCUUCGGUGGCGCGAUGGCGCCAACGUUCUCAACUAUGAAACGCAAAACGCGUGCUCCGUUGAAUGGAGUUUAUCCUG [A91G C114A A150C] cannot be ordered by “polymerase ribozyme fitness (log ratio)” value: at most -4.2 for the first, at most -4.2 for the second.

In the case of GGAUCUUCUCGAUCUAACAAAAAAGACAAAUCUGCCACAAAGCUUGAGAGCAUCUUCGGAUGCAGAGGCGGCAGCCUUCGGUGGCGCGAUGGCGCCAACGUUCUCAACUAUGACACGCAAAACGCGUGCUCCGUUGAAUGGAGAUUAUAAUG [A91G U144A C149A], the “polymerase ribozyme fitness (log ratio)” value is reported as at most -4.2.
